From the supplement of paper PMC10126150
Values marked as one replicate rest on one cluster of the flow cell; about a third of the high ones do not repeat.

System: ATP
Experiment: switch fluorescence ratio, 500 uM ATP over buffer (Cy3 cluster intensity, sum of 5 cycles each) (fold (ratio)); higher = stronger signal-on switching upon ATP binding; sequences stand for … in TCGTCGGCAGCGTCAGATGTGTATAAGAGACAGTTTTTTTTTTTTTTTTTTTTTTTTT…TC
Details: aptamer strand: ATP DNA aptamer (quencher-CACCTGGGGGAGTATTGCGGAGGAAGG + anchor), 100 nM annealed; ATP concentration: 500 uM; one replicate
Outline: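 For every switch-domain sequence, the fluorescence ratio is the mean of per-cluster values, each being summed target-cycle Cy3 intensity over summed buffer-cycle Cy3 intensity. Clusters outside 100-1000 RFU were excluded. On a modified Illumina MiSeq flow-cell, the Cy3-labelled switching-strand clusters were annealed to 100 nM quencher-labelled ATP aptamer, imaged in selection buffer and then after 15 min with 500 uM ATP at 22 °C. Five such cycles were run, with NaOH stripping and re-annealing between them.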
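Note: ATP exposure 15 min at 22 °C before imaging.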

## GATTTACTGC
  switch fluorescence ratio: 0.985

## GACTTTACGT
  switch fluorescence ratio: 1.12

## CGGGTCCCAT
  switch fluorescence ratio: 0.996

## TGTAATAACA
  switch fluorescence ratio: 0.999

## AGTTTTAAAG
  switch fluorescence ratio: 1.04

## CCGTTCTT
  switch fluorescence ratio: 0.947

## ACTCCTTTTT
  switch fluorescence ratio: 0.962

## GAGCTTTATA
  switch fluorescence ratio: 1.04

## GTCACTCTGC
  switch fluorescence ratio: 1.12

## TATGCGTCGT
  switch fluorescence ratio: 0.983

## AATAAGCCTG
  switch fluorescence ratio: 0.974

## GATCCCAGCT
  switch fluorescence ratio: 0.984

## CCTGTTGGTC
  switch fluorescence ratio: 0.984

## TGGGCTTCAC
  switch fluorescence ratio: 1.02

## ATCGCTGTGC
  switch fluorescence ratio: 1.22

## CCGTGGCGAA
  switch fluorescence ratio: 1.77

## TGCGCCGGTG
  switch fluorescence ratio: 1.01

## TCTGGTAAAG
  switch fluorescence ratio: 1.01

## ACTTTCTTTT
  switch fluorescence ratio: 0.952

## AAAGAGAAGG
  switch fluorescence ratio: 1.03

## TCCTGGGGA
  switch fluorescence ratio: 1.29

## CCAAGAAACT
  switch fluorescence ratio: 1.03

## GAGATCTGTA
  switch fluorescence ratio: 0.983

## TATAATTGTG
  switch fluorescence ratio: 1

## GAGGTGGATT
  switch fluorescence ratio: 1.01

## TCCGTCATCC
  switch fluorescence ratio: 1.57

## AGTGTCGGCT
  switch fluorescence ratio: 1.03

## GAGCAAATGA
  switch fluorescence ratio: 1.23

## CTAAAGGATC
  switch fluorescence ratio: 0.945

## GTGTCCTAGA
  switch fluorescence ratio: 1.01

## GCTATGCAGG
  switch fluorescence ratio: 1.03

## GCTGATAGTG
  switch fluorescence ratio: 0.978

## CCTCGATTTA
  switch fluorescence ratio: 1.02

## CAGGTTACGA
  switch fluorescence ratio: 1.01

## TTGCAAGCAA
  switch fluorescence ratio: 2.51

## TCCGAGTACA
  switch fluorescence ratio: 1.84

## CCCGGCCTCT
  switch fluorescence ratio: 1.14

## ATTTTTAGAT
  switch fluorescence ratio: 0.961

## GAGTAAACGA
  switch fluorescence ratio: 1.03

## GCACAGGGCG
  switch fluorescence ratio: 1

## ATATTGGGC
  switch fluorescence ratio: 0.989

## ATTCTTGGT
  switch fluorescence ratio: 1

## GACACGGGAT
  switch fluorescence ratio: 0.952

## TGGACTAACT
  switch fluorescence ratio: 1.13

## CCGTCATTTG
  switch fluorescence ratio: 1.09

## TCCGGGCGAG
  switch fluorescence ratio: 1.11

## CATAGGTGT
  switch fluorescence ratio: 1.21

## ATTTGTGAGT
  switch fluorescence ratio: 0.957

## TGGGTGTAAT
  switch fluorescence ratio: 0.957

## CATATATTCA
  switch fluorescence ratio: 1.03

## ATGGCTGTAT
  switch fluorescence ratio: 1.04

## GCTGTCGACG
  switch fluorescence ratio: 0.976

## CATAAGGAAC
  switch fluorescence ratio: 1.03

## GACGTGCTTT
  switch fluorescence ratio: 1.02

## ACCAAGTTAA
  switch fluorescence ratio: 1.02

## GCTAATAGCG
  switch fluorescence ratio: 0.999

## GTGTCGATGG
  switch fluorescence ratio: 0.994

## ACTCCGGTAA
  switch fluorescence ratio: 1.19

## TTACGACGGT
  switch fluorescence ratio: 1.24

## CATAAACACA
  switch fluorescence ratio: 1.01

## ACGGTGGGG
  switch fluorescence ratio: 1.03

## TAGCTTGCGA
  switch fluorescence ratio: 0.996

## ATGGTCTAGT
  switch fluorescence ratio: 0.99

## TCACTTAGTT
  switch fluorescence ratio: 1.03

## ATCGGGTTAT
  switch fluorescence ratio: 0.982

## TCTGCACGTG
  switch fluorescence ratio: 1.04

## GCTCTAATCA
  switch fluorescence ratio: 0.979

## CAAAGAGTGC
  switch fluorescence ratio: 0.975

## GTAGTTGTCA
  switch fluorescence ratio: 1.01

## GAGACAAGGT
  switch fluorescence ratio: 1.01

## CAGATAACAG
  switch fluorescence ratio: 1.01

## AGGTCTAGGT
  switch fluorescence ratio: 0.952

## AATATAACGT
  switch fluorescence ratio: 0.991

## TTCGCCATGC
  switch fluorescence ratio: 2.67

## ACGAGTAATC
  switch fluorescence ratio: 1.22

## GTCACCTGAG
  switch fluorescence ratio: 1.31

## AGGGTTCGCC
  switch fluorescence ratio: 0.966

## CTCAGCGGAG
  switch fluorescence ratio: 1.08

## ATAGCCCGCA
  switch fluorescence ratio: 0.995

## TTCCTGCTAG
  switch fluorescence ratio: 1.01

## CAATGGTAGG
  switch fluorescence ratio: 0.998

## ATAAGGGTAC
  switch fluorescence ratio: 1.03

## TGAGATTATG
  switch fluorescence ratio: 0.986

## TACTCACACT
  switch fluorescence ratio: 1.4

## TTTAACTTAA
  switch fluorescence ratio: 0.997

## CACAGAGCGG
  switch fluorescence ratio: 0.994

## AAAACCCCTT
  switch fluorescence ratio: 2.1

## ATATTTGGT
  switch fluorescence ratio: 0.997

## TTGCTTTATA
  switch fluorescence ratio: 0.981

## ATGATACAGC
  switch fluorescence ratio: 1.32

## GAAGTTGATG
  switch fluorescence ratio: 0.956

## TATGCTTGTA
  switch fluorescence ratio: 1

## GGCCTCTGCG
  switch fluorescence ratio: 1.06

## ATGGAGCAGG
  switch fluorescence ratio: 1.07

## CCCAGGCCCC
  switch fluorescence ratio: 1.21

## GATGCTTTTG
  switch fluorescence ratio: 1.01

## CAGGGCGATG
  switch fluorescence ratio: 1

## AAGATAAGGA
  switch fluorescence ratio: 0.972

## TTACCAAAGT
  switch fluorescence ratio: 1.04

## GGAAGCGCCT
  switch fluorescence ratio: 0.969

## TGAAATGGAT
  switch fluorescence ratio: 1.01

## CTTTAGAGAG
  switch fluorescence ratio: 0.993

## GCGATCTGTG
  switch fluorescence ratio: 1

## CCTACATATT
  switch fluorescence ratio: 1.04

## AAAAACTCG
  switch fluorescence ratio: 1.1

## GGCGTTTAGT
  switch fluorescence ratio: 1.02

## TTTCCTCAGC
  switch fluorescence ratio: 1.86

## GTTTCAGTTG
  switch fluorescence ratio: 0.982

## TCTTTGGATT
  switch fluorescence ratio: 0.994

## CTATTAGGAA
  switch fluorescence ratio: 0.972

## AATTGTCTG
  switch fluorescence ratio: 1.02

## TCAGGCCGGG
  switch fluorescence ratio: 1.02

## CCAACAAGCT
  switch fluorescence ratio: 1.03

## TTTGCCCCAC
  switch fluorescence ratio: 1.43

## AACATATA
  switch fluorescence ratio: 1.03

## TTCGGATACG
  switch fluorescence ratio: 0.987

## TATTGCAAAC
  switch fluorescence ratio: 1.04

## ACCCGTCCGC
  switch fluorescence ratio: 2.77

## TTTGAGAGAC
  switch fluorescence ratio: 0.97

## CTGCATCACT
  switch fluorescence ratio: 1.59

## AAGTTTCATA
  switch fluorescence ratio: 0.949

## ATGATATGTG
  switch fluorescence ratio: 1.02

## TTACATAACT
  switch fluorescence ratio: 1.09

## CTTCACCAGC
  switch fluorescence ratio: 1.23

## CTGGATTTCT
  switch fluorescence ratio: 0.977

## GTAGGAATTG
  switch fluorescence ratio: 1.04

## TGTAACGTCG
  switch fluorescence ratio: 0.959

## GCGCCCAGGC
  switch fluorescence ratio: 1.18

## AACGGTATGA
  switch fluorescence ratio: 1.08

## TAGCAAACCC
  switch fluorescence ratio: 1.33

## GGGTAACACG
  switch fluorescence ratio: 1.03

## TATAGTCGC
  switch fluorescence ratio: 1.04

## CAACGGAGTG
  switch fluorescence ratio: 0.988

## CGCCGCGCTG
  switch fluorescence ratio: 1.16

## CAATTTGGTA
  switch fluorescence ratio: 0.961

## TTAACATCAA
  switch fluorescence ratio: 0.974

## AATTAGTGCA
  switch fluorescence ratio: 1.04

## AACCCTGGTG
  switch fluorescence ratio: 4.87

## ACTATGGACA
  switch fluorescence ratio: 0.941

## TTTTACATCT
  switch fluorescence ratio: 1.03

## TATTTATTCA
  switch fluorescence ratio: 1.01

## CCATCAATG
  switch fluorescence ratio: 1.01

## TATGAGTTGG
  switch fluorescence ratio: 0.922

## TAACCTCCAT
  switch fluorescence ratio: 1.02

## CACTCACTCG
  switch fluorescence ratio: 1.13

## ATAACCGGTG
  switch fluorescence ratio: 1.07

## TTTCATAGGG
  switch fluorescence ratio: 0.969

## TTTTGAGGA
  switch fluorescence ratio: 0.985

## AGCCACCACT
  switch fluorescence ratio: 1.01

## GCAAGAATTA
  switch fluorescence ratio: 1.01

## GCATTGCTGT
  switch fluorescence ratio: 1

## TGCGTAGTG
  switch fluorescence ratio: 0.973

## GCGTATCAGT
  switch fluorescence ratio: 0.993

## GTCGTTTAAT
  switch fluorescence ratio: 0.97

## ACTCATCTTA
  switch fluorescence ratio: 1.01

## CAATAGGTAT
  switch fluorescence ratio: 0.995

## GACGATAATA
  switch fluorescence ratio: 1.29
